This list was built around the results that the source calls inconclusive (neither active nor inactive); the mix of calls is not that of the screen. The source made the active and inactive calls.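 The calls were made as follows, unless noted: active = thallium flux slope more than 3 SD above or below the plate's solvent-only control mean, mostly below; inconclusive = the two repeat wells disagreed; inactive = no significant shift from solvent-only controls.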
Test system: not listed separately
Experiment: FluoZin2 fluorescence counter-screen of MLSMR hits on KCC2-expressing cells (AID 1714;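 active = thallium entry rate above the same plate's blocked-transporter control wells by more than 3 SD; inconclusive = the two repeat wells disagree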;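 also: raw slope of fluorescence over initial fluorescence between 10 and 20 s after thallium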)
Settings: HEK293-KCC2 + bumetanide/ouabain, at 10 µM, active compounds read high
Method in brief: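 Assay system: HEK cells expressing the K-Cl cotransporter KCC2; buffer or medium: HBSS-HEPES plus ouabain 0.2 mM, bumetanide 2 mM; reagent: thallium stimulus; compound dosing: 10 µM single dose; timing: 48 min dye loading; signal: FluoZin2-AM (0.5 µM) fluorescence, 480 nm ex/540 nm em, 1 Hz kinetic imaging; replication: duplicates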

SMILES | normalized thallium flux
O=C(NNc1nc(-c2ccccc2)cs1)c1ccccc1 | inconclusive: 0.00738
COc1ccc(N2C(=S)N=C(Nc3ccccc3)C23CCCCC3)cc1 | active: 0.0261
Cc1cccc(Nc2nnc(SCC(=O)c3ccc(Br)s3)s2)c1C | inconclusive: 0.0074
O=C(NC(=S)Nc1ccc(CN2CCOCC2)cc1)c1ccco1 | active: 0.0341
Cc1nn(-c2ccc(F)cc2)c(Cl)c1/C=C(\CCC(=O)O)c1nc2ccccc2s1 | inconclusive: 0.00575
O=S(=O)(NCc1csc(-c2cccs2)n1)c1ccc(Cl)cc1 | inconclusive: 0.0032
CCC1=NN2C(=N)/C(=C\c3cccn3-c3ccc(Cl)cc3)C(=O)N=C2S1 | active: 0.0433

Biological target: Solute carrier family 12 member 5 (Homo sapiens) (UniProt Q9H2X9)
Experiment: retest of KCC2 transport modulation, ouabain-free – cell-based, HEK293 KCC2, thallium flux, FluoZin2, secondary assay 2, confirmation (AID 1715);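 also: raw slope with 0.1% DMSO as baseline and bumetanide as block control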
Settings: HEK293-KCC2, thallium flux FluoZin2 fluorescence; at 10 µM; actives lie on both sides; F/F0 rise rate, 10–20 s post-thallium

Chain of UniProt Q9H2X9 (Q9H2X9 whole entry, looked up): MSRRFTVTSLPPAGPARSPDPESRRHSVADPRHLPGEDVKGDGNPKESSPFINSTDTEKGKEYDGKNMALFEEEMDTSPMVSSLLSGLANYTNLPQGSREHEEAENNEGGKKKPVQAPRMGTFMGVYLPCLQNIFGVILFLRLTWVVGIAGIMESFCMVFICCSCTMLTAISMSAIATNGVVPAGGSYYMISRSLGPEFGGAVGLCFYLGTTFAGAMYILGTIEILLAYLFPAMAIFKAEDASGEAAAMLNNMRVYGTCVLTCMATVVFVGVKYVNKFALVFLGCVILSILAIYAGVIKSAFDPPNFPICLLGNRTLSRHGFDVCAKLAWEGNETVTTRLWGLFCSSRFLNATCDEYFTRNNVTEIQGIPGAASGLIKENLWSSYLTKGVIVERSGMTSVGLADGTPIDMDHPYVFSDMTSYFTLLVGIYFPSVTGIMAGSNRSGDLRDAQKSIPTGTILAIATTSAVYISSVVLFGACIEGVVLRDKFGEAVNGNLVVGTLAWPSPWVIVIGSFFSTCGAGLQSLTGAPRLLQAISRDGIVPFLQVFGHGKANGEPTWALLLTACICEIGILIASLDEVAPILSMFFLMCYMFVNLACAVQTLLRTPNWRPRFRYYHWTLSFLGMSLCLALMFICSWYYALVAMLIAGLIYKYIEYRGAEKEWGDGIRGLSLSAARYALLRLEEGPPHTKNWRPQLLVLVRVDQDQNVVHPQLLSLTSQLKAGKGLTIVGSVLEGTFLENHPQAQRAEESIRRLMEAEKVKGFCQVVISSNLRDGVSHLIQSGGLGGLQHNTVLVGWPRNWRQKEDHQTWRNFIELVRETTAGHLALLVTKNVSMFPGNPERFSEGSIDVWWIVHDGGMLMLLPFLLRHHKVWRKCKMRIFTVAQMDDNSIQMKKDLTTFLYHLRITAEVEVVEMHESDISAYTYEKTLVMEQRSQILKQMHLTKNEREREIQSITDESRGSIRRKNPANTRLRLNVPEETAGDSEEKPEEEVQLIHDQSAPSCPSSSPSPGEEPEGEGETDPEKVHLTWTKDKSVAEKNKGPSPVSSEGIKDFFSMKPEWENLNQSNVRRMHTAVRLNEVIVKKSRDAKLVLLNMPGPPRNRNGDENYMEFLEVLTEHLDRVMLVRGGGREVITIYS

SMILES | normalized thallium flux
CCCCn1c(-c2csc(CCC)c2)n[nH]c1=S | active: 0.0442
CCn1c(O)c(N=NC(=O)c2cccs2)c2ccccc21 | inactive: 0.0319
CC(C)(C)c1ccc(NC(=O)C(=O)C2C(=O)Nc3ccccc32)cc1 (stereo not given) | inconclusive: 0.0368
Cc1onc(-c2ccccc2)c1C(=O)NC(=S)Nc1sc2c(c1C#N)CCC(C)C2 (stereo not given) | inconclusive: 0.037
S=C(NCCc1ccccc1)N/N=C/c1c(Cl)cccc1Cl | inconclusive: 0.0382
Cc1c(N=C2Nc3cccc4cccc2c34)c(=O)n(-c2ccccc2)n1C | active: 0.0258
O=C(O)/C=C/c1cn(Cc2ccccc2)nc1-c1ccc(Cl)cc1 | inconclusive: 0.0253
Cc1[nH]n(-c2ccccc2)c(=O)c1/C=N/N(c1ccccc1)c1ccccc1 | active: 0.0718
Cc1cccc(Nc2nnc(SCC(=O)Nc3cccc(S(=O)(=O)N4CCCCC4)c3)s2)c1 | inconclusive: 0.0267
CCCCNC(=S)N=Nc1c(O)[nH]c2ccccc12 | inconclusive: 0.041
O=C(NC(=S)Nc1cccc2ncccc12)c1ccco1 | inconclusive: 0.0376
Cc1ccc2c(c1)C1CN(C)CCC1N2C(=S)NC(=O)c1ccc(Br)cc1 (stereo not given) | inconclusive: 0.0406
CCCCn1c(SCC(=O)NCC2CCCO2)nc2ccc(N3CCOCC3)cc2c1=O (stereo not given) | inconclusive: 0.0277
COc1cc(/C=N/NC(=O)CN(Cc2ccccc2)S(=O)(=O)c2ccc3c(c2)OCCO3)ccc1O | inconclusive: 0.0275
COc1cc2c(cc1OC)CN(C(=S)NC(=O)c1ccccc1)CC2 | inconclusive: 0.0397
CCn1c(=S)[nH]c2cc(Cl)ccc21 | inconclusive: 0.0341
Cc1ccc(OCC(=O)NNC(=S)NC(=O)C(C)(C)C)c(Br)c1 | inconclusive: 0.0391

SMILES | normalized thallium flux
O=C(Nc1nc(-c2ccccn2)cs1)c1ccc(Cl)s1 | active: 0.06
C=C(C)CNC(=S)N/N=C/c1c(F)cccc1F | inconclusive: 0.0376
O=C1/C(=C/c2ccccc2O)SC(=S)N1Cc1cccnc1 | inconclusive: 0.0381
O=C(/C=C/c1ccccc1)NC(=S)N1CCSCC1 | inconclusive: 0.037
CCCc1nc2c(o1)CC(CC(C)SCC)CC2=O (stereo not given) | inconclusive: 0.0261
CC(C)(C)c1cc(C(=O)NNC(=O)c2ccc(C(F)(F)F)cc2)no1 | inconclusive: 0.0407
O=C1c2ccccc2-c2cccc(NS(=O)(=O)c3ccc(C(F)(F)F)cc3)c21 | inconclusive: 0.0404
N=C1S/C(=C\c2ccco2)C(=O)N1c1nccs1 | inconclusive: 0.0346
S=c1[nH]nc(-c2cccc(Cl)c2)n1/N=C/c1ccco1 | inactive: 0.0381
CCCCNC(=O)[C@H](CSCc1ccccc1)N1Cc2ccccc2C1=O | inactive: 0.0316
C/C(=N\NC(=O)c1cc([N+](=O)[O-])cc([N+](=O)[O-])c1)c1ccco1 | inconclusive: 0.0348
Cc1cc(C)c(S(=O)(=O)/N=C2/C=C(SCC(=O)O)C(=O)c3ccccc32)cc1C | inconclusive: 0.0275
Cc1ccc(N=Cc2c(O)n(-c3nccs3)c(=O)c3ccccc23)c(C)c1 | active: 0.0195
COc1cc(OC)c(OC)cc1/C=C/c1cc(C(F)(F)F)[nH]c(=O)n1 | inconclusive: 0.0272
CC(C)Cn1c(=S)[nH]c2cc(Cl)ccc21 | inconclusive: 0.0544
CCn1c(=O)c2c(n3c(=S)[nH]nc13)-c1ccccc1CC21CCCCC1 | inconclusive: 0.0428

Reference: PubChem BioAssay
